{"sequences": {"note": "By UniProt entry, the sequences of proteins in these tests, tags left out.", "UniProt Q06142": "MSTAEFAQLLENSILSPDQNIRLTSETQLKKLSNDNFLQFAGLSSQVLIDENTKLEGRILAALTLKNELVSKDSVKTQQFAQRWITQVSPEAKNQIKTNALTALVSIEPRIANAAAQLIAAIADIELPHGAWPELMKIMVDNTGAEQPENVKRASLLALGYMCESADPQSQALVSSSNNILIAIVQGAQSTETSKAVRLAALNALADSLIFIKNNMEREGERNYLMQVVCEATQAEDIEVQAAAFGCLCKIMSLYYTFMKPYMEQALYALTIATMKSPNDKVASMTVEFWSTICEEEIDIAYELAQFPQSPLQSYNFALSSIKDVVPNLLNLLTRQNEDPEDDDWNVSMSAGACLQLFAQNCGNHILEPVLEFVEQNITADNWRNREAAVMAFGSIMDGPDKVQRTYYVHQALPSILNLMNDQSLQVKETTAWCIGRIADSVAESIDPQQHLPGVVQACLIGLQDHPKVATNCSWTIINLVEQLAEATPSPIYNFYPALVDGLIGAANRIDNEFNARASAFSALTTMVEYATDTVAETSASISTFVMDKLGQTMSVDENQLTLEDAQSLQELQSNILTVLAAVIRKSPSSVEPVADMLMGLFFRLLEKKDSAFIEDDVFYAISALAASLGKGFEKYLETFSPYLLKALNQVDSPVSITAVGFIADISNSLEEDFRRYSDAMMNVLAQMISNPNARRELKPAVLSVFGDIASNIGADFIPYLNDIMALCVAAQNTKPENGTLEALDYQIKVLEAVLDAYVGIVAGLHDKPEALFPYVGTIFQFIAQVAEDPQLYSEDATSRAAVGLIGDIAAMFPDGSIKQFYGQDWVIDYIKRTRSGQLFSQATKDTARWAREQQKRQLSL"}, "source": "paper PMC5098186", "about": "“Nuclear import of dimerized ribosomal protein Rps3 in complex with its chaperone Yar1” (Scientific Reports, 2016)", "molecules": {"B1": {"name": "His6-Rps3(K7/K10>A) (protein, UniProt P05750 1-240)", "chain": "MVALISAKRALVADGVFYAELNEFFTRELAEEGYSGVEVRVTPTKTEVIIRATRTQDVLGENGRRINELTLLVQKRFKYAPGTIVLYAERVQDRGLSAVAQAESMKFKLLNGLAIRRAAYGVVRYVMESGAKGCEVVVSGKLRAARAKAMKFADGFLIHSGQPVNDFIDTATRHVLMRQGVLGIKVKIMRDPAKSRTGPKALPDAVTIIEPKEEEPILAPSVKDYRPAEETEAQAEPVEA"}, "B2": {"name": "Rps3 (protein, UniProt P05750 1-240)", "chain": "MVALISKKRKLVADGVFYAELNEFFTRELAEEGYSGVEVRVTPTKTEVIIRATRTQDVLGENGRRINELTLLVQKRFKYAPGTIVLYAERVQDRGLSAVAQAESMKFKLLNGLAIRRAAYGVVRYVMESGAKGCEVVVSGKLRAARAKAMKFADGFLIHSGQPVNDFIDTATRHVLMRQGVLGIKVKIMRDPAKSRTGPKALPDAVTIIEPKEEEPILAPSVKDYRPAEETEAQAEPVEA"}, "B3": {"name": "Rps3-Flag (protein, UniProt P05750 1-240)", "chain": "MVALISKKRKLVADGVFYAELNEFFTRELAEEGYSGVEVRVTPTKTEVIIRATRTQDVLGENGRRINELTLLVQKRFKYAPGTIVLYAERVQDRGLSAVAQAESMKFKLLNGLAIRRAAYGVVRYVMESGAKGCEVVVSGKLRAARAKAMKFADGFLIHSGQPVNDFIDTATRHVLMRQGVLGIKVKIMRDPAKSRTGPKALPDAVTIIEPKEEEPILAPSVKDYRPAEETEAQAEPVEA"}, "B4": {"name": "Flag-Yar1 (natural protein, S. cerevisiae, UniProt P46683 1-200, looked up)", "chain": "MGLHSEPLDQEDQDTIILDARAGDLDSLKDIFTTLVSPELLSTCKESESDSTALHMAAANGHIETVRYILETVSRANSAEDLKAFVNEVNKTGNTALHWASLNGKLDVVKLLCDEYEADPFIRNKFGHDAIFEAENSGKEEVETYFLKKYDVEPEDDEEDTQTEGKNSVQITKGTEIEQVTKEATEALREETEKLNINKD", "notes": "Yar1, specific chaperone of Rps3, S. cerevisiae, recombinant"}}, "key": {"Rps3-TAP (S. cerevisiae)": {"target": "T1, Rps3-TAP (S. cerevisiae) (UniProt P05750)", "T1 sequence": "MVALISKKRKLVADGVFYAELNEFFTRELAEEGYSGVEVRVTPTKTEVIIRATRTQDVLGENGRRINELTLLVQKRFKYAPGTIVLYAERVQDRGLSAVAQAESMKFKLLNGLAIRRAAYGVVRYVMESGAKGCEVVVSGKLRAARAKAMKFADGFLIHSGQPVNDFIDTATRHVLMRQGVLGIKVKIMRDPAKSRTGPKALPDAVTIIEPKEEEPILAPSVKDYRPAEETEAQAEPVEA", "test": "co-IP; tandem affinity purification (TAP) from yeast lysate via the TAP-tagged bait; final eluates analysed by SDS-PAGE with Coomassie staining or Western blotting; strain without TAP-tag as negative control"}, "[1]": {"target": "T2, Rps3-Flag (S. cerevisiae) (UniProt P05750)", "T2 sequence": "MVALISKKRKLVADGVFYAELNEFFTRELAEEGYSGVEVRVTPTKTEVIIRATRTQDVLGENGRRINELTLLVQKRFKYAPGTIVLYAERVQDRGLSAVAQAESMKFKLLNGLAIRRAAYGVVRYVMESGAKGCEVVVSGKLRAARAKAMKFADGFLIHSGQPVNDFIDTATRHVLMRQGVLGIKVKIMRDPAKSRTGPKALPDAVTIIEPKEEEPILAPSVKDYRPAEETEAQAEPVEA", "test": "co-IP; split-tag two-step affinity purification from yeast lysate: first via the protein A tag of Yar1-TAP (TEV eluate), then via Rps3-Flag; final eluate analysed by Coomassie staining or Western blotting; untagged wild-type strain as negative control"}, "GST-Kap60ΔIBB": {"target": "T3, GST-Kap60ΔIBB (S. cerevisiae, UniProt Q02821 81-542)", "T3 construct": "Kap60/Srp1 (importin α) of S. cerevisiae lacking the N-terminal IBB domain (80 amino acids); GST can be removed with TEV protease; also called GST-tagged Kap60ΔIBB; source: E. coli BL21 (DE3) Rosetta Star, immobilized on glutathione-agarose beads", "T3 sequence (looked up)": "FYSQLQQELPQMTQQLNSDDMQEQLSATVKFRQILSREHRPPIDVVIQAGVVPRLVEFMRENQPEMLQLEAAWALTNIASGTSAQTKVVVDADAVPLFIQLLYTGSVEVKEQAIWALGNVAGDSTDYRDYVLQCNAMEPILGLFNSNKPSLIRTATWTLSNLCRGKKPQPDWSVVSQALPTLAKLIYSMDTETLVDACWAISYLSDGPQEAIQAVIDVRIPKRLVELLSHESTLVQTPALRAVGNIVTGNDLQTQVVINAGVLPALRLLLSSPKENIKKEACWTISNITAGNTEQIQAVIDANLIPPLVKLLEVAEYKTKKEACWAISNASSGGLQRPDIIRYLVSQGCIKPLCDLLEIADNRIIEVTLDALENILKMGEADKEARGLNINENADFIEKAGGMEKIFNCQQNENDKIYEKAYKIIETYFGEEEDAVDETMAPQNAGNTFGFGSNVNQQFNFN", "test": "pull-down; GST-tagged importins immobilized on glutathione-agarose beads, incubated with purified His6-Rps3/Flag-Yar1 complex or purified Flag-Yar1; 50 mM Tris pH 7.5, 150 mM NaCl, 1 mM DTT; eluted by boiling (Fig. 2b, Supplementary Fig. S2) or by TEV cleavage (Fig. 2c); Coomassie staining or Western blotting; both purified"}, "Yar1-TAP (S. cerevisiae) [2]": {"target": "T4, Yar1-TAP (S. cerevisiae) (UniProt P46683)", "T4 sequence": "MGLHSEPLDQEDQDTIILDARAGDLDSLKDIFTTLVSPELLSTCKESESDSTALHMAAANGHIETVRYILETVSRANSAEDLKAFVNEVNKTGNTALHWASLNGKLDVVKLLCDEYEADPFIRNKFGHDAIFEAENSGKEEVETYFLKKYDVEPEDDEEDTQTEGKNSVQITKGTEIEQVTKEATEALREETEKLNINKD", "test": "co-IP; tandem affinity purification (TAP) from yeast lysate via the TAP-tagged bait; final eluates analysed by SDS-PAGE with Coomassie staining or Western blotting; strain without TAP-tag as negative control"}, "Yar1-TAP (S. cerevisiae) [3]": {"target": "T4, Yar1-TAP (S. cerevisiae)", "test": "co-IP; split-tag two-step affinity purification from yeast lysate: first via the protein A tag of Yar1-TAP (TEV eluate), then via Rps3-Flag; final eluate analysed by Coomassie staining or Western blotting; untagged wild-type strain as negative control"}, "GST-Kap123": {"target": "T5, GST-Kap123 (S. cerevisiae, UniProt P40069 1-1113)", "T5 construct": "Kap123 (karyopherin β4) of S. cerevisiae, recombinant; also called GST-tagged Kap123; source: E. coli BL21 (DE3) Rosetta Star, immobilized on glutathione-agarose beads", "T5 sequence (looked up)": "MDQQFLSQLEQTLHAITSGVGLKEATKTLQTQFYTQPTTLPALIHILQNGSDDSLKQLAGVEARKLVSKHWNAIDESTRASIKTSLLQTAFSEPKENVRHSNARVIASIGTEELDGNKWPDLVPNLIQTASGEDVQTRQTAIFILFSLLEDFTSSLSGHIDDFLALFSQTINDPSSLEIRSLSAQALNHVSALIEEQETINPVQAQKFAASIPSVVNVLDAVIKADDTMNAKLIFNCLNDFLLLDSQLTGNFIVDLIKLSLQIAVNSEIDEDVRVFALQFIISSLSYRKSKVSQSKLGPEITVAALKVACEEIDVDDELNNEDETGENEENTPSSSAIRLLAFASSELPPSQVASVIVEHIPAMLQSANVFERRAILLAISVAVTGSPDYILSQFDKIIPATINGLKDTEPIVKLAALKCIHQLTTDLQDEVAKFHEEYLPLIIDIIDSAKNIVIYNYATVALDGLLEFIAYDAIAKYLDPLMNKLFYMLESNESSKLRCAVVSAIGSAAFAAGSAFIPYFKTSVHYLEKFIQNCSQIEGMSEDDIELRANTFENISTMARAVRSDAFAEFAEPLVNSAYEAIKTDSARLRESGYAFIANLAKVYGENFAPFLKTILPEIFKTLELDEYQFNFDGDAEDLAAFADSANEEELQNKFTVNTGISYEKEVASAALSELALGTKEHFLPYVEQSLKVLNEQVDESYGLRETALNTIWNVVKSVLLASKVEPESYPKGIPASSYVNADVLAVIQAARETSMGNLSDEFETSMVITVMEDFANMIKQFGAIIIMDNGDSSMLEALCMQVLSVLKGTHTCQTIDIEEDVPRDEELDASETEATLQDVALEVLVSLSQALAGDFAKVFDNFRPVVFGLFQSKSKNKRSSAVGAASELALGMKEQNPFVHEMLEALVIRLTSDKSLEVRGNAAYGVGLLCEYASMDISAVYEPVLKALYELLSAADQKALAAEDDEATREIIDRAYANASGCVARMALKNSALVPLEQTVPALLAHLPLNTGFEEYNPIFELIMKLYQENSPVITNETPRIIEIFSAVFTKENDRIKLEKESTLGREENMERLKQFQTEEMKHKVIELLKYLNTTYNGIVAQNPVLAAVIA", "test": "pull-down; GST-tagged importins immobilized on glutathione-agarose beads, incubated with purified His6-Rps3/Flag-Yar1 complex or purified Flag-Yar1; 50 mM Tris pH 7.5, 150 mM NaCl, 1 mM DTT; eluted by boiling (Fig. 2b, Supplementary Fig. S2) or by TEV cleavage (Fig. 2c); Coomassie staining or Western blotting; both purified"}}, "note": "These are yes or no findings as the source states them, for the method shown. For some assays here: In cells and extracts the contact can be indirect. Some entries that bind do so weakly or less than the wild type. For some assays here: Tags and fused reporters may be left off the sequences shown."}
{"molecule": "Kap60-3xHA (from UniProt Q02821 1-542)", "values": [{"measurement": "binding", "setting": "Rps3-TAP (S. cerevisiae)", "result": "binds"}]}
{"molecule": "Kap95 (from UniProt Q06142 1-861)", "values": [{"measurement": "binding", "setting": "[1]", "result": "binds"}]}
{"molecule": "Kap60 (from UniProt Q02821 1-542)", "values": [{"measurement": "binding", "setting": "[1]", "result": "binds"}]}
{"molecule": "B1", "values": [{"measurement": "binding", "setting": "GST-Kap60ΔIBB", "result": "binds weakly"}]}
{"molecule": "B2", "values": [{"measurement": "binding", "setting": "Yar1-TAP (S. cerevisiae) [2]", "result": "binds"}]}
{"molecule": "B3", "values": [{"measurement": "binding", "setting": "Yar1-TAP (S. cerevisiae) [3]", "result": "binds"}]}
{"molecule": "B4", "values": [{"measurement": "binding", "setting": "GST-Kap123", "result": "no binding"}, {"measurement": "binding", "setting": "GST-Kap60ΔIBB", "result": "no binding"}]}
